The list shows a part of the results.
Tests used:
Experiment in all cases: glycan array binding signal (z-score within array); higher = stronger binding
Settings in all cases: glycan notation: IUPAC condensed, linker removed
[1] = target: GlcNAc(b1-3)Gal(b1-3)GalNAc
In short: (§1)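 Arrays were curated from the Consortium for Functional Glycomics database, 3228 in total, and kept only where the protein sequence was available. Binding is expressed as a within-array Z-score. This score was averaged across arrays of the same protein sequence at different concentrations or buffers and across linkers, and negative values can be read as non-binding.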

GlcNAc(b1-3)Gal(b1-4)Glc = target: GlcNAc(b1-3)Gal(b1-4)Glc
In short: as §1

[2] = target: GlcNAc(b1-3)Gal(b1-4)GlcNAc
In short: as §1

[3] = target: GlcNAc(b1-3)Gal(b1-4)GlcNAc(b1-2)Man(a1-3)[GlcNAc(b1-3)Gal(b1-4)GlcNAc(b1-2)Man(a1-6)]Man(b1-4)GlcNAc(b1-4)GlcNAc
In short: as §1

[4] = target: GlcNAc(b1-3)Gal(b1-4)GlcNAc(b1-2)Man(a1-3)[GlcNAc(b1-3)Gal(b1-4)GlcNAc(b1-2)Man(a1-6)]Man(b1-4)GlcNAc(b1-4)[Fuc(a1-6)]GlcNAc
In short: as §1

[5] = target: GlcNAc(b1-3)Gal(b1-4)GlcNAc(b1-2)[GlcNAc(b1-3)Gal(b1-4)GlcNAc(b1-6)]Man(a1-6)[GlcNAc(b1-3)Gal(b1-4)GlcNAc(b1-2)Man(a1-3)]Man(b1-4)GlcNAc(b1-4)GlcNAc
In short: as §1

[6] = target: GlcNAc(b1-3)Gal(b1-4)GlcNAc(b1-3)Gal(b1-4)GlcNAc
In short: as §1

[7] = target: GlcNAc(b1-3)Gal(b1-4)GlcNAc(b1-3)Gal(b1-4)GlcNAc(b1-2)Man(a1-3)[GlcNAc(b1-3)Gal(b1-4)GlcNAc(b1-3)Gal(b1-4)GlcNAc(b1-2)Man(a1-6)]Man(b1-4)GlcNAc(b1-4)GlcNAc
In short: as §1

[8] = target: GlcNAc(b1-3)Gal(b1-4)GlcNAc(b1-3)Gal(b1-4)GlcNAc(b1-2)Man(a1-3)[GlcNAc(b1-3)Gal(b1-4)GlcNAc(b1-3)Gal(b1-4)GlcNAc(b1-2)Man(a1-6)]Man(b1-4)GlcNAc(b1-4)[Fuc(a1-6)]GlcNAc
In short: as §1

[9] = target: GlcNAc(b1-3)Gal(b1-4)GlcNAc(b1-3)Gal(b1-4)GlcNAc(b1-2)[GlcNAc(b1-3)Gal(b1-4)GlcNAc(b1-3)Gal(b1-4)GlcNAc(b1-6)]Man(a1-6)[GlcNAc(b1-3)Gal(b1-4)GlcNAc(b1-3)Gal(b1-4)GlcNAc(b1-2)Man(a1-3)]Man(b1-4)GlcNAc(b1-4)[Fuc(a1-6)]GlcNAc
In short: as §1

[10] = target: GlcNAc(b1-3)Gal(b1-4)GlcNAc(b1-3)Gal(b1-4)GlcNAc(b1-3)Gal(b1-4)GlcNAc(b1-2)Man(a1-3)[GlcNAc(b1-3)Gal(b1-4)GlcNAc(b1-3)Gal(b1-4)GlcNAc(b1-3)Gal(b1-4)GlcNAc(b1-2)Man(a1-6)]Man(b1-4)GlcNAc(b1-4)GlcNAc
In short: as §1

[11] = target: GlcNAc(b1-3)Gal(b1-4)GlcNAc(b1-3)Gal(b1-4)GlcNAc(b1-3)Gal(b1-4)GlcNAc(b1-2)Man(a1-3)[GlcNAc(b1-3)Gal(b1-4)GlcNAc(b1-3)Gal(b1-4)GlcNAc(b1-3)Gal(b1-4)GlcNAc(b1-2)Man(a1-6)]Man(b1-4)GlcNAc(b1-4)[Fuc(a1-6)]GlcNAc
In short: as §1

[12] = target: GlcNAc(b1-3)Gal(b1-4)GlcNAc(b1-3)Gal(b1-4)GlcNAc(b1-3)Gal(b1-4)GlcNAc(b1-2)[GlcNAc(b1-3)Gal(b1-4)GlcNAc(b1-3)Gal(b1-4)GlcNAc(b1-3)Gal(b1-4)GlcNAc(b1-6)]Man(a1-6)[GlcNAc(b1-3)Gal(b1-4)GlcNAc(b1-3)Gal(b1-4)GlcNAc(b1-3)Gal(b1-4)GlcNAc(b1-2)Man(a1-3)]Man(b1-4)GlcNAc(b1-4)[Fuc(a1-6)]GlcNAc
In short: as §1

[13] = target: GlcNAc(b1-3)Gal(b1-4)GlcNAc(b1-3)Gal(b1-4)GlcNAc(b1-3)Gal(b1-4)GlcNAc(b1-3)Gal(b1-4)GlcNAc(b1-2)Man(a1-3)[GlcNAc(b1-3)Gal(b1-4)GlcNAc(b1-3)Gal(b1-4)GlcNAc(b1-3)Gal(b1-4)GlcNAc(b1-3)Gal(b1-4)GlcNAc(b1-2)Man(a1-6)]Man(b1-4)GlcNAc(b1-4)GlcNAc
In short: as §1

[14] = target: GlcNAc(b1-3)Gal(b1-4)GlcNAc(b1-3)Gal(b1-4)GlcNAc(b1-3)Gal(b1-4)GlcNAc(b1-3)Gal(b1-4)GlcNAc(b1-2)Man(a1-3)[GlcNAc(b1-3)Gal(b1-4)GlcNAc(b1-3)Gal(b1-4)GlcNAc(b1-3)Gal(b1-4)GlcNAc(b1-3)Gal(b1-4)GlcNAc(b1-2)Man(a1-6)]Man(b1-4)GlcNAc(b1-4)[Fuc(a1-6)]GlcNAc
In short: as §1

[15] = target: GlcNAc(b1-3)Gal(b1-4)GlcNAc(b1-3)Gal(b1-4)GlcNAc(b1-3)Gal(b1-4)GlcNAc(b1-3)Gal(b1-4)GlcNAc(b1-2)[GlcNAc(b1-3)Gal(b1-4)GlcNAc(b1-3)Gal(b1-4)GlcNAc(b1-3)Gal(b1-4)GlcNAc(b1-3)Gal(b1-4)GlcNAc(b1-6)]Man(a1-6)[GlcNAc(b1-3)Gal(b1-4)GlcNAc(b1-3)Gal(b1-4)GlcNAc(b1-3)Gal(b1-4)GlcNAc(b1-3)Gal(b1-4)GlcNAc(b1-2)Man(a1-3)]Man(b1-4)GlcNAc(b1-4)[Fuc(a1-6)]GlcNAc
In short: as §1

[16] = target: GlcNAc(b1-3)Gal(b1-4)GlcNAc(b1-3)Gal(b1-4)GlcNAc(b1-3)GalNAc
In short: as §1

[17] = target: GlcNAc(b1-3)Gal(b1-4)GlcNAc(b1-3)GalNAc
In short: as §1

[18] = target: GlcNAc(b1-3)Gal(b1-4)GlcNAc(b1-3)[GlcNAc(b1-3)Gal(b1-4)GlcNAc(b1-3)]GalNAc
In short: as §1

[19] = target: GlcNAc(b1-3)Gal(b1-4)GlcNAc(b1-6)[Gal(b1-3)]GalNAc
In short: as §1

[20] = target: GlcNAc(b1-3)Gal(b1-4)GlcNAc(b1-6)[GlcNAc(b1-3)Gal(b1-3)]GalNAc
In short: as §1

[21] = target: GlcNAc(b1-3)Gal(b1-4)GlcNAc(b1-6)[GlcNAc(b1-3)]Gal(b1-4)GlcNAc
In short: as §1

GlcNAc(b1-3)GalNAc = target: GlcNAc(b1-3)GalNAc
In short: as §1

GlcNAc(b1-3)Man = target: GlcNAc(b1-3)Man
In short: as §1

[22] = target: GlcNAc(b1-3)[GlcNAc(b1-4)][GlcNAc(b1-6)]GlcNAc
In short: as §1

[23] = target: GlcNAc(b1-3)[GlcNAc(b1-6)]Gal(b1-4)GlcNAc
In short: as §1

[24] = target: GlcNAc(b1-3)[GlcNAc(b1-6)]GalNAc
In short: as §1

[25] = target: GlcNAc(b1-4)Gal(b1-4)GlcNAc
In short: as §1

GlcNAc(b1-4)GlcNAc = target: GlcNAc(b1-4)GlcNAc
In short: as §1

[26] = target: GlcNAc(b1-4)GlcNAc(b1-4)GlcNAc
In short: as §1

[27] = target: GlcNAc(b1-4)GlcNAc(b1-4)GlcNAc(b1-4)GlcNAc(b1-4)GlcNAc
In short: as §1

[28] = target: GlcNAc(b1-4)GlcNAc(b1-4)GlcNAc(b1-4)GlcNAc(b1-4)GlcNAc(b1-4)GlcNAc
In short: as §1

[29] = target: GlcNAc(b1-4)[GlcNAc(b1-6)]GalNAc
In short: as §1

[30] = target: GlcNAc(b1-6)Gal(b1-4)GlcNAc
In short: as §1

GlcNAc(b1-6)GalNAc = target: GlcNAc(b1-6)GalNAc
In short: as §1

[31] = target: GlcNAc6S(b1-3)Gal(b1-4)GlcNAc
In short: as §1

Kdn(a2-3)Gal(b1-3)GalNAc = target: Kdn(a2-3)Gal(b1-3)GalNAc
In short: as §1

Kdn(a2-3)Gal(b1-3)GlcNAc = target: Kdn(a2-3)Gal(b1-3)GlcNAc
In short: as §1

Kdn(a2-3)Gal(b1-4)Glc = target: Kdn(a2-3)Gal(b1-4)Glc
In short: as §1

Kdn(a2-3)Gal(b1-4)GlcNAc = target: Kdn(a2-3)Gal(b1-4)GlcNAc
In short: as §1

[32] = target: Kdn(a2-3)Gal(b1-4)[Fuc(a1-3)]GlcNAc
In short: as §1

Kdn(a2-6)Gal(b1-4)GlcNAc = target: Kdn(a2-6)Gal(b1-4)GlcNAc
In short: as §1

[33] = target: Man(a1-2)Man(a1-2)Man(a1-3)Man
In short: as §1

[34] = target: Man(a1-2)Man(a1-2)Man(a1-6)[Man(a1-3)]Man
In short: as §1

Man(a1-2)Man(a1-3)Man = target: Man(a1-2)Man(a1-3)Man
In short: as §1

B1: AFCNVH (Aspergillus fumigatus) (protein)
chain: MSLRGFHTTCDTIVLKDKHILSSRCKRPDGTYSFSEIDLNDCLGNNNGKFVWGGESFVDSASQVNLALEGGEGRPMLHAQLNDWHGSVQSASVNLGECIQNEAGGLEYMHC
glycan array binding signal (z-score) [1]: -0.412
glycan array binding signal (z-score) (GlcNAc(b1-3)Gal(b1-4)Glc): -0.196
glycan array binding signal (z-score) [2]: 1.25
glycan array binding signal (z-score) [3]: 1.64
glycan array binding signal (z-score) [4]: 0.734
glycan array binding signal (z-score) [5]: 1.43
glycan array binding signal (z-score) [6]: 0.992
glycan array binding signal (z-score) [7]: 1.19
glycan array binding signal (z-score) [8]: 1.68
glycan array binding signal (z-score) [9]: 3.73
glycan array binding signal (z-score) [10]: 4.24
glycan array binding signal (z-score) [11]: 1.59
glycan array binding signal (z-score) [12]: 3.78
glycan array binding signal (z-score) [13]: 2.25
glycan array binding signal (z-score) [14]: 1.62
glycan array binding signal (z-score) [15]: 4.73
glycan array binding signal (z-score) [16]: -0.352
glycan array binding signal (z-score) [17]: -0.45
glycan array binding signal (z-score) [18]: -0.369
glycan array binding signal (z-score) [19]: -0.642
glycan array binding signal (z-score) [20]: -0.209
glycan array binding signal (z-score) [21]: 1.68
glycan array binding signal (z-score) (GlcNAc(b1-3)GalNAc): -0.376
glycan array binding signal (z-score) (GlcNAc(b1-3)Man): -0.213
glycan array binding signal (z-score) [22]: -0.338
glycan array binding signal (z-score) [23]: 3.67
glycan array binding signal (z-score) [24]: 0.421
glycan array binding signal (z-score) [25]: -0.236
glycan array binding signal (z-score) (GlcNAc(b1-4)GlcNAc): 2.07
glycan array binding signal (z-score) [26]: 3.22
glycan array binding signal (z-score) [27]: 3.83
glycan array binding signal (z-score) [28]: 3.6
glycan array binding signal (z-score) [29]: 1.64
glycan array binding signal (z-score) [30]: 2.8
glycan array binding signal (z-score) (GlcNAc(b1-6)GalNAc): 1.1
glycan array binding signal (z-score) [31]: 1.19
glycan array binding signal (z-score) (Kdn(a2-3)Gal(b1-3)GalNAc): -0.446
glycan array binding signal (z-score) (Kdn(a2-3)Gal(b1-3)GlcNAc): -0.584
glycan array binding signal (z-score) (Kdn(a2-3)Gal(b1-4)Glc): -0.406
glycan array binding signal (z-score) (Kdn(a2-3)Gal(b1-4)GlcNAc): -0.378
glycan array binding signal (z-score) [32]: -0.455
glycan array binding signal (z-score) (Kdn(a2-6)Gal(b1-4)GlcNAc): -0.094
glycan array binding signal (z-score) [33]: -0.188
glycan array binding signal (z-score) [34]: -0.495
glycan array binding signal (z-score) (Man(a1-2)Man(a1-3)Man): -0.451

Source: the supplement of paper PMC8728848
